# Results as given in PubChem BioAssay AID1345083 (National Center for Advancing Translational Sciences (NCATS), 2018).
# About 6,200 (6.6%) of roughly 94,000 compounds were called active. Inconclusive results, whose numbers are uncertain, are shown with a selection of clear calls. The call rests on the fitted dose curve; in most records, active means well fitted inhibition curve with a large enough effect; inconclusive means small, poorly fitted or top-dose-only effect; inactive means flat fitted curve, though single readings scatter. Where the call is inconclusive, the potency comes from a doubtful curve fit.
# Assay: Cytotoxic Profiling in HEK 293 Cell Line of Diverse Libraries Using Quantitative High-Throughput Screening; further: nearly all actives have a fitted effect of over 60% in size
# Conditions: HEK 293 viability, ATP luminescence (CellTiter-Glo), 48-72 h; series mostly up to 115 µM
# Summary of the method: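 Viability of HEK 293 cells, plated at 250 cells/well, was judged by cellular ATP after compound treatment for 48 or 72 hr. Luminescence was imaged 10 min after CellTiter-Glo addition at room temperature.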
# Potency means the concentration at half of the fitted maximal effect; tags describe the fitted curve by direction and shape.
row,Compound,Potency
1,Cc1ccc(Nc2ccnc(N3CCC(C(=O)N4CCN(C)CC4)CC3)n2)cc1,"inconclusive: 89.1 µM [inhibitor, single point]"
2,Cc1noc(C)c1Cn1cc2c3c(cccc31)[C@H](CC(C)C)N[C@H](C(=O)NCc1ccco1)C2,"inconclusive: 50.1 µM [inhibitor, partial curve, poor fit]"
3,CCS[C@H]1CCN2C(=O)c3cc(-c4ccccc4)ccc3NC(=O)[C@H]12,"inconclusive: 44.7 µM [inhibitor, full curve, poor fit]"
4,COc1ccc2c(c1)c(CN1CCCCCCN(C)C(=O)[C@@H]3CCC[C@@H]31)cn2C,active: 35.5 µM
5,O=C(NCCCc1ccccc1)c1nc2sccn2c1-c1ccc(F)cc1,active: 100 µM
6,N#Cc1cccc(CN2CCc3nc(C(=O)NCc4ccncc4)oc3CC2)c1,"inconclusive: 70.8 µM [inhibitor, partial curve]"
7,CCN(CC)Cc1nc(C2(O)CCN(Cc3ccc(OC)cc3)CC2)cs1,"inconclusive: 112 µM [inhibitor, single point]"
8,CN(Cc1cccc(C(F)(F)F)c1)C(=O)c1ccc(Cl)nc1,"inconclusive: 100 µM [inhibitor, partial curve]"
9,O=C(c1ccc(C(F)(F)F)cc1)N1CCCC2(CNc3ncccc3[S+](=O)([O-])N2)C1 (stereo not given),inactive
10,CCc1noc(-c2ccn3c(CNC(=O)c4ccc(C)c(C)c4)nnc3c2)n1,inactive
11,CS(=O)(=O)N1CCC2(CC1)CN(c1cccc(F)c1)C2c1ccccc1 (stereo not given),active: 12.6 µM
12,O=C(NCc1cccc(Cl)c1)c1nc2cccnc2n(Cc2ccccc2)c1=O,"inconclusive: 50.1 µM [inhibitor, partial curve, poor fit]"
13,COc1ccccc1Nc1ccnc(N2CCC(C(=O)NCc3cccc(C(F)(F)F)c3)CC2)n1,"inconclusive: 22.4 µM [inhibitor, full curve, poor fit]"
14,O=C(c1cccc2nccnc12)N1CCC(Cc2nc(-c3ccccc3)n[nH]2)CC1,inactive
15,Cc1ccc(NC(=O)NCC2CCOCC2)cc1F,inactive
16,O=[S+]1([O-])NCC2(CCN(Cc3ccc(C(F)(F)F)cc3)C2)Nc2ccccc21 (stereo not given),"inconclusive: 50.1 µM [inhibitor, partial curve, poor fit]"
17,NC(=O)c1cccc(-c2cc3c(cn2)CN(Cc2ccccc2)CCN3)c1,"inconclusive: 112 µM [inhibitor, partial curve]"
18,COCC1CN(C(C)=O)CC12CCN(Cc1ccc(Cl)cc1F)CC2 (stereo not given),"inconclusive: 50.1 µM [inhibitor, partial curve, poor fit]"
19,CCOC(=O)c1sc(NC(=O)C[C@H]2NC(=O)c3ccccc3NC2=O)nc1C,"inconclusive: 89.1 µM [inhibitor, single point]"
20,COc1ccc(CCC(=O)N2CCC3(CC2)C(OC)CN3c2cccc(F)c2)cc1 (stereo not given),"inconclusive: 50.1 µM [inhibitor, partial curve, poor fit]"
21,COc1cccc(-c2noc(CC3CCN(C(=O)c4cccc(F)c4)CC3)n2)c1,"inconclusive: 10 µM [inhibitor, full curve, poor fit]"
22,COc1cc(-c2ncccc2C(=O)N2CCCC2)cc(OC)c1OC,"inconclusive: 89.1 µM [inhibitor, single point]"

row,Compound,Potency
1,NC(=O)CNC(=O)c1cc2n(n1)CC(c1ccc(Br)cc1)OC2 (stereo not given),inactive
2,COC1CN(C(=O)OCc2ccccc2)CCC(=O)N(C)c2ccccc21 (stereo not given),"inconclusive: 39.8 µM [inhibitor, single point]"
3,O=C1CC2(CCN(C(=O)c3cnc4ccccn4c3=O)C2)C(=O)N1 (stereo not given),inactive
4,CC(C)CNC(=O)N1CCc2nc(-c3ccccc3)[nH]c2C1,inactive
5,COCc1nc(-c2ccc(OC3CCN(C(=O)CCc4ccc(OC)cc4)C3)cc2)no1 (stereo not given),"inconclusive: 44.7 µM [inhibitor, partial curve, poor fit]"
6,CC(C)CC(=O)N1CCC(N2CC(OCC3CC3)C23CCOCC3)CC1 (stereo not given),"inconclusive: 89.1 µM [inhibitor, single point]"
7,Cc1cnc(C(=O)N2CCCC(c3nnc4n3CCN(C3CCCC3)C4)C2)cn1 (stereo not given),inactive
8,CCc1ccc(N2CC(c3noc(-c4ccc(OC)nc4OC)n3)CC2=O)cc1 (stereo not given),active: 44.7 µM
9,Cc1cnc(C)c(N2CCN(Cc3nc(-c4sccc4C)oc3C)CC2)n1,"inconclusive: 79.4 µM [inhibitor, partial curve]"
10,Cc1ccc(NC(=O)N2CCC3(CC2)CC(Cc2nc(-c4ccccc4)no2)CCO3)cc1C (stereo not given),"inconclusive: 14.1 µM [inhibitor, full curve, poor fit]"
11,O=C(NCc1cccs1)c1ccc2nnc(C3CCOCC3)n2c1,inactive
12,CC(C)C(=O)N1CCC2(CC1)OCC(C(=O)NCc1ccc(F)cc1)N2C(=O)c1ccccc1 (stereo not given),"inconclusive: 100 µM [inhibitor, single point]"
13,Cc1nn(-c2ccccc2)c2c1C(C)N(C1CCN(C(=O)Nc3ccc(Cl)cc3)C1)C2=O (stereo not given),"inconclusive: 39.8 µM [inhibitor, partial curve]"
14,CC(C)c1noc(-c2cn(C3CCN(C(=O)c4ccccc4)CC3)nn2)n1,inactive
15,CC(C)N1CC[C@H](c2nnc(-c3ccccc3F)o2)C1,inactive
16,O=C(CCNC(=O)c1cnccn1)NC1CCCc2c1[nH]c1ccc(F)cc21 (stereo not given),"inconclusive: 39.8 µM [inhibitor, partial curve]"
17,COc1ccccc1Nc1ccnc(N2CCC(NC(=O)c3ccccc3)CC2)n1,"inconclusive: 22.4 µM [inhibitor, full curve, poor fit]"
18,CNC(=O)[C@@H]1CN(C(=O)c2ncoc2-c2cccc(C)c2)C[C@H]1CO,inactive
19,CC(C)NC(=O)N1CCN(c2ccc3nnc(-c4ccccc4)n3n2)CC1,"inconclusive: 39.8 µM [inhibitor, full curve]"
20,CCn1cnnc1-c1nn(C)c2c1CN(C(=O)c1noc(C)c1COc1cccc(C)c1)CC2,inactive
21,CCC(=O)N1CCc2sc(C(=O)NCc3cccnc3)cc2C1,inactive
22,COc1ccc(-c2cc(N3CCCN(C(=O)c4cc5ccccc5[nH]4)CC3)n[nH]2)cc1,active: 44.7 µM

row,Compound,Potency
1,O=C(Nc1cccc(F)c1)N1Cc2[nH]cnc2C[C@H]1c1nc(-c2ccc3c(c2)OCO3)no1,"inconclusive: 79.4 µM [inhibitor, partial curve, poor fit]"
2,CCNC(=O)NC[C@@H]1C=C(C)[C@H](CC(=O)NCc2ccc(F)cc2)C[C@H]1C(C)C,"inconclusive: 100 µM [inhibitor, partial curve, poor fit]"
3,CNC(=O)c1cc(C2CC2)nc2c1c(C1CCCN(C(=O)c3ccc(Cl)cc3)C1)nn2C (stereo not given),"inconclusive: 79.4 µM [inhibitor, partial curve]"
4,CC(=O)Nc1ccc(CN2CCC3(C2)C(=O)N(C)c2ccccc23)cc1 (stereo not given),inactive
5,Oc1ccc(-c2nc(C3CC3)nc3c2CCN(Cc2ccsc2)CC3)cc1,"inconclusive: 79.4 µM [inhibitor, partial curve, poor fit]"
6,CSc1ccc(NC(=O)c2ccc3c(c2)N(C)C2CCCN2C3=O)cc1 (stereo not given),"inconclusive: 35.5 µM [inhibitor, full curve, poor fit]"
7,COCC(=O)NC1CCC12CCN(C(=O)c1cccc(C#N)c1)CC2 (stereo not given),"inconclusive: 100 µM [inhibitor, single point]"
8,COc1ccc(-c2cc(N3CCCC(NC(=O)c4ccc(OC)c(OC)c4)C3)n[nH]2)cc1 (stereo not given),"inconclusive: 10 µM [inhibitor, full curve, poor fit]"
9,O=C1CC2(CCN(C(=O)c3ccccc3F)CC2)Oc2ccccc21,"inconclusive: 79.4 µM [inhibitor, partial curve, poor fit]"
10,CCS[C@H]1CCN2C(=O)c3cc(-c4ccccc4F)ccc3NC(=O)[C@H]12,active: 89.1 µM
11,COC(=O)CCNC(=O)C1c2ccccc2C(=O)N(CC(C)C)C12CCCC2 (stereo not given),inactive
12,C[C@H]1CN(C(=O)c2ccc(F)cc2)C[C@@H]1c1nc(-c2ccccc2)no1,"inconclusive: 50.1 µM [inhibitor, partial curve, poor fit]"
13,COC(=O)c1ccc(NC(=O)N2CCC3(CC2)N(CC2CC2)C(=O)CS3=O)cc1 (stereo not given),inactive
14,COCC(=O)NC[C@@H]1C=C(C)[C@H](Cc2nc3ccc(C(=O)OC)cc3[nH]2)C[C@H]1C(C)C,active: 63.1 µM
15,COCC(=O)N1CCN(C(=O)c2nc3cccnc3n(C3CC3)c2=O)CC1,inactive
16,COc1ccccc1CNC(=O)C1CCN(c2nccc(Nc3ccc(C)cc3)n2)CC1,"inconclusive: 39.8 µM [inhibitor, full curve, poor fit]"
17,O=C1NCCCCCN(Cc2cccc(F)c2)[C@H]2CCC[C@@H]12,"inconclusive: 56.2 µM [inhibitor, partial curve, poor fit]"
18,Cc1ccc(-c2cc(C(=O)N3CCN(Cc4ccccc4)CC3)c3cnn(C)c3n2)cc1,"inconclusive: 56.2 µM [inhibitor, partial curve, poor fit]"
19,COc1cccc(CC(=O)N2CCC3(CC2)CC(N(C2CC2)S(C)(=O)=O)CCO3)c1 (stereo not given),"inconclusive: 89.1 µM [inhibitor, single point]"
20,CC(C)C[C@@H]1N[C@H](C(=O)NC2CCCC2)Cc2cn(CC3CC3)c3cccc1c23,active: 44.7 µM
21,C=CCn1cc2c3c(cccc31)[C@H](CC(C)C)N[C@H](C(=O)NCc1ccccc1)C2,"inconclusive: 70.8 µM [inhibitor, partial curve]"
